Source: the supplement of paper PMC3334620
The full ranking holds about 33,000 sequences; the median of “E-score (-0.5 to 0.5)” is about -0.053, and the highest 2% start at about 0.37. Some of the results follow.

Target: Hap1 (UniProt P0CE41)
Experiment: PBM E-score (8-mer binding enrichment) (E-score (-0.5 to 0.5)); higher = stronger / more preferred TF binding; most listed sequences are background and not binding sites
Conditions: protein concentration: 200 nM; construct: GST-DNA-binding domain
In short: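 Yeast transcription factors, full-length or as DNA-binding domains, were expressed with a GST tag using PURExpress in vitro transcription/translation. At about 100-200 nM they were applied to universal all-10-mer Agilent arrays, double-stranded by primer extension on fresh or once-stripped slides. Fluorescent anti-GST detected bound protein, and masliner normalised the scans. E-scores for ungapped eight-base words, pooled with reverse complements, came from the Universal PBM Analysis Suite.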

Sequence of UniProt P0CE41 (P0CE41 whole entry): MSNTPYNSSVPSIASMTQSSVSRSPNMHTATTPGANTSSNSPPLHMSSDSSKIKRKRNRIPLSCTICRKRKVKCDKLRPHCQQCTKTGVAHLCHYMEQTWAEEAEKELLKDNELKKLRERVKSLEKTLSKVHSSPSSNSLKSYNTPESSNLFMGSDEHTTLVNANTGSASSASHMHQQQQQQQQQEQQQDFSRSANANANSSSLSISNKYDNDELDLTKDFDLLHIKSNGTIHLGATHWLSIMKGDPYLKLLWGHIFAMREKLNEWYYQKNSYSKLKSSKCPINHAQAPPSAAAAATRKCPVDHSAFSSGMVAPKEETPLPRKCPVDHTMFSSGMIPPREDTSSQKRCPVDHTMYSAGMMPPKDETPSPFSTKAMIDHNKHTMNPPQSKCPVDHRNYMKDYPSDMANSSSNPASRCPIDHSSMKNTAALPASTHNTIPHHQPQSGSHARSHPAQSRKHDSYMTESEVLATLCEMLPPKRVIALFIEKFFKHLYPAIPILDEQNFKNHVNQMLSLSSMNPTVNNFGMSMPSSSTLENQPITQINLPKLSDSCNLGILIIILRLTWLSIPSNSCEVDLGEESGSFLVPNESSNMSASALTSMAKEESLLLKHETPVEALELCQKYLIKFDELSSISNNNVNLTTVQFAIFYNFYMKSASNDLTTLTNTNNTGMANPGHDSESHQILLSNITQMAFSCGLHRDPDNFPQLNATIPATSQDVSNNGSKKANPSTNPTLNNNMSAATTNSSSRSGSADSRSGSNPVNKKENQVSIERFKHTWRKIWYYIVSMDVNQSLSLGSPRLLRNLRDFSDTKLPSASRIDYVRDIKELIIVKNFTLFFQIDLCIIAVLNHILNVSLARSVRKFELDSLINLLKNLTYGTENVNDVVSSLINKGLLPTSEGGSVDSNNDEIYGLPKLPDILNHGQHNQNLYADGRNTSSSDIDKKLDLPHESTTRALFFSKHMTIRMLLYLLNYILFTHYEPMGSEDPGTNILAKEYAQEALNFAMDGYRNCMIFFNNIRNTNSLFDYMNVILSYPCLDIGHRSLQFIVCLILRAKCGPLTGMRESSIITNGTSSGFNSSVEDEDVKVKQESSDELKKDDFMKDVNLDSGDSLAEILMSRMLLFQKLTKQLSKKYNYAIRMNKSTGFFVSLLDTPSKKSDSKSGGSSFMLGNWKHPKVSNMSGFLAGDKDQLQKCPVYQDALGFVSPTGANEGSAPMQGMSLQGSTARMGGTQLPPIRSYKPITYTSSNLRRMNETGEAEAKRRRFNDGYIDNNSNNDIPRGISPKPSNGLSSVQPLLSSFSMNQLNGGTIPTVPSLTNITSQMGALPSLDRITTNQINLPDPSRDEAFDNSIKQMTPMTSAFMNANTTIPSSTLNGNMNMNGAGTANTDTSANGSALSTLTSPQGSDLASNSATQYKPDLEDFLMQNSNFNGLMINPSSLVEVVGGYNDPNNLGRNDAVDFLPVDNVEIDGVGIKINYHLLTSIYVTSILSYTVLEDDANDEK

| Sequence | PBM E-score |
| --- | --- |
| CCACATTA | -0.224 |
| CGCGAGTA | 0.146 |
| AACGACGG | 0.163 |
| CCTCGGGC | 0.31 |
| CATTGTGA | -0.0941 |
| GATGACAA | -0.0665 |
| AGGCGCTC | -0.0481 |
| GGCCTCAC | -0.134 |
| AAACTGTG | -0.187 |
| ATCTGCTG | -0.18 |
| ATATGCGA | 0.167 |
| TAACTCAA | -0.0398 |
| CCTTGCAG | -0.134 |
| GCGAACAC | -0.0338 |
| CTCCCCCA | -0.0682 |
| CCAGGGGC | -0.248 |
| CTCACCTC | -0.152 |
| CATAGAGC | -0.237 |
| AATGCACC | -0.0449 |
| CTGGAAGC | -0.28 |
| AAAGCTAT | 0.00647 |
| AATTAACC | 0.244 |
| ATAAGAAT | 0.00369 |
| ATACGACA | -0.185 |
| ACATTACA | -0.0941 |

| Sequence | PBM E-score |
| --- | --- |
| ACCAGTAA | 0.0185 |
| AAAGGCCA | 0.0295 |
| AGCAACGC | 0.0695 |
| ACTGACTC | -0.143 |
| GATCCATA | 0.0859 |
| ACCCGGTA | 0.376 |
| TGCTTGAA | -0.0898 |
| GAACGCCA | -0.0158 |
| GAGGTTCC | 0.0516 |
| CCTCTTGC | -0.064 |
| CTGAGGTC | -0.295 |
| CAAGTGAC | -0.162 |
| CTGGGTTA | -0.0941 |
| CTATACCA | -0.246 |
| CGAGTCAG | -0.0635 |
| AGTAGTAT | 0.00074 |
| GGACGTAC | 0.0978 |
| AACTTGAT | -0.137 |
| CACTCCAG | -0.144 |
| ACAGCAGC | -0.127 |
| CAGCTGAG | -0.27 |
| CGCCAATA | 0.0636 |
| ACTTACCT | -0.0187 |
| CGACGGCG | 0.173 |
| AATGCCTA | 0.0479 |

| Sequence | PBM E-score |
| --- | --- |
| GAAGTAAA | 0.0731 |
| CTAGGCGC | -0.198 |
| AGTGAGAC | -0.208 |
| TCATGGGA | -0.285 |
| TGAATCCA | -0.111 |
| CTGAACCA | -0.2 |
| AACGACAT | -0.16 |
| AAAAAGTC | 0.146 |
| CAACGAGC | -0.111 |
| GTCCAAAA | 0.119 |
| AATCGTGC | 0.126 |
| CTTTCAGA | -0.0911 |
| AAGGCTGC | -0.1 |
| TGCAGACA | -0.233 |
| GACCATGA | 0.0326 |
| CTAGTCGA | -0.103 |
| ACCAGACA | -0.183 |
| CATTATCC | 0.11 |
| CACGGTAC | 0.0688 |
| GCGTTCTA | 0.056 |
| AAAGATGG | -0.166 |
| GAAGTATA | 0.121 |
| GAGCATGA | -0.228 |
| CCTGCACC | -0.0519 |
| CGGTCTAA | 0.178 |

| Sequence | PBM E-score |
| --- | --- |
| CGGGCGTA | 0.395 |
| ACTAAGTG | -0.102 |
| TCTTGACA | -0.233 |
| GAGGAGCA | -0.00845 |
| ATCGTTTC | -0.0452 |
| GCAAAGCC | -0.0393 |
| AAAACTAG | -0.116 |
| CCAGAACA | -0.139 |
| GGTCCGGA | 0.44 |
| CGATGTTC | 0.145 |
| CTATACAA | -0.157 |
| TAATAATA | -0.024 |
| ATTGGTGC | 0.0244 |
| GCGGCGCA | 0.119 |
| GAACAAGA | 0.0382 |
| GTTCTGAA | -0.271 |
| CGGAGCGC | 0.258 |
| TAGGCTCA | -0.319 |
| CAGCACCA | -0.124 |
| CAGATCCG | 0.322 |
| AAATAGCC | 0.093 |
| CACAACTG | -0.32 |
| GGCAGCAC | -0.133 |
| CTTGGAAC | -0.129 |
| AATCCGCC | 0.261 |

| Sequence | PBM E-score |
| --- | --- |
| AAATGCTT | 0.0946 |
| CCGATCGG | 0.402 |
| CTCCATGC | -0.237 |
| ACGTTAGT | -0.0823 |
| CCCCTTCA | -0.281 |
| ACGGATGA | 0.228 |
| TCAGCACA | -0.218 |
| ATCCAGAT | -0.0723 |
| GTTCGGAA | 0.312 |
| GGCTAGGA | -0.272 |
| AGTGGCGC | 0.0613 |
| GCGTACCA | -0.301 |
| GGCAGACC | -0.11 |
| AGGGTGTG | -0.105 |
| GAGTCGGC | 0.188 |
| CGTCAGAA | -0.181 |
| CTCTTTCA | -0.216 |
| ACCTTCGT | -0.173 |
| AACCTGGT | -0.034 |
| ACTAGCCT | -0.034 |
| ACCAGGAA | -0.0154 |
| ACACCCCT | -0.104 |
| CAATCTGA | -0.151 |
| CTTTGTCC | 0.19 |
| CAGCTCAC | -0.128 |

| Sequence | PBM E-score |
| --- | --- |
| ACCAACAG | -0.0664 |
| ACCCCGCC | 0.198 |
| CCCGCCCA | 0.00805 |
| AGCTGGTC | -0.231 |
| AACCTATA | 0.00602 |
| CGTCTAAG | -0.102 |
| ACTGTCCA | -0.173 |
| CCAAGACG | -0.22 |
| CTTGTCGA | -0.39 |
| AGCCTAAG | -0.271 |
| TATCGATA | 0.0165 |
| ACCTGGAT | -0.166 |
| GGAGTAGA | 0.03 |
| ACGCGTAT | 0.0832 |
| GTTGTCTA | -0.1 |
| ATCGACAG | -0.066 |
| CACACAGA | -0.227 |
| CCCACGTC | -0.0511 |
| GACAAAGC | 0.123 |
| AATGAGGG | -0.196 |
| CTTGCACA | -0.136 |
| CGCGGCAG | 0.1 |
| ACTGTTTC | -0.00592 |
| AGCCCGAC | 0.127 |
| ACCTATCT | -0.179 |

| Sequence | PBM E-score |
| --- | --- |
| GACCCCTA | -0.276 |
| GATCGAGC | 0.127 |
| CAGTTCCG | 0.248 |
| AAATTTGG | -0.205 |
| ATGAGTCC | 0.0718 |
| ATAAGCGC | 0.0156 |
| AGAGCCAT | -0.15 |
| GCCAGTCC | 0.112 |
| CTGCACTC | -0.0272 |
| AGACCCCG | 0.272 |
| AGACAAAC | -0.0936 |
| CGTCGAAC | -0.209 |
| CTAGTGGC | -0.169 |
| AATAGGCC | -0.0456 |
| AACAGGTA | -0.0945 |
| ACATGCAG | -0.165 |
| CTACCGAG | 0.139 |
| CTTTAATA | -0.0221 |
| CCTCGACC | -0.177 |
| CTCAGCGA | -0.00422 |
| CCGGATGA | 0.356 |
| AAGCGTGA | -0.1 |
